In PubChem BioAssay (NCI):
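48-hour exposure; five concentrations; linearly interpolated endpoints. GI50 is the concentration that inhibits growth by half. TGI: concentration producing complete growth inhibition.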

These compounds were tested on NCI-H322M lung (assay: inhibition of tumour cell growth, NCI panel, 48 h).

| Structure (SMILES) | GI50 [µM] | TGI [µM] |
| --- | --- | --- |
| CCCCc1ccc(NS(=O)(=O)c2cc3c4c(c2)CCN4C(=O)CC3)cc1 | 69.6 | > 100 |
| Cc1ccc(S(=O)(=O)N/N=C2/C3CCC(C3)C2c2ccccc2)cc1 (centres undefined) | – | > 100 |
| CCCCN(CC)C(=O)C1=C(C)NC(C)=C(C(=O)N(CC)CCCC)C1 | – | > 100 |
| OCN(CO)c1ccc2c(c1)Cc1cc(F)ccc1-2 | – | 41.1 |
| COC(=O)CCCC(=O)C1=Nc2ccccc2CN(c2ccc(Cl)cc2)N1 | – | > 100 |
| NC(CCCCO)C(=O)O (centres undefined) | – | > 100 |
| CC(C#N)NCc1ccc(C(C)NC(C)C#N)cc1 (centres undefined) | – | > 100 |
| COc1ccc(C(c2ccc(OC)cc2)N2C(=O)CCC2C(=O)O)cc1 (centres undefined) | – | > 100 |
| Clc1ccc(-c2nc3ccc(Cl)cc3[nH]2)cc1 | – | > 100 |
| C=C1C(O)C2C(=C(CC(C)C)C13CC3)C(=O)C(C)(C)C2O (centres undefined) | > 100 | > 100 |
| O=C(/C=C/c1c(-c2ccccc2)[nH]c2ccccc12)S(=O)(=O)c1ccccc1 | > 100 | > 100 |
